Read counts are not given, so values of variants with three or more changes are uncertain.

B1: LINE1-mini (parent)
chain: GGCAGAGCUCAACACAGCGUGGCAAAGUGGCUGUGGCUAGACUGCC

Variants of B1 are the subject of the data set. The experiment in a line: self-cleavage, relative activity (ratio to wild type); higher = more cleavage; in vitro, sequencing; the parent is a self-cleaving ribozyme.
Consider GGAAGAGCUGAACGCAGCGAGGCAAAGCUACUGUGGCGAGACCGCC, for which the self-cleavage was 0.01. Then GGAACAGCUGAACACCGCGUGACAAAGUGGCUGUGCCUAGACUGCC, with 0.03; and GGCAGAGCUCAACCAAGCGUGACAAAGUUGCUGUGGCUAGAUUGCC, with 0.04.

GGCAGAGCUCAACACAGGGUGGAAACGUGGCUGUGGCUAGACUGCC: the self-cleavage was determined as 0.38. Then GGAAGAGCUCAUCACAGCGUGGCAAAGUGGCUGUGGCUAGACUGCA, with 0.07; and GGCAGAGCUCAACACCGCGUGGUAAAGUGGCUAUGACUAGACUGCC, with 0.04. With GGCAGAACUCAACACAGCGCUGCAAAGUAGCUGUCUCUAGACUGCC the figure was 0; with GGCAGAGCCGAACAUAGCGCGGCAUAGUGGGUUUGGCUAGACUCCC, 0.01. As to GUCAUAGCUCAAAACAGCGUGGUAAAGUGGCUGUGGCUAGACUGCC, the self-cleavage was found to be 0.02. With GGCAGAGCUCAACACAGCGUGGAAAAGGCGCUGUGGCUAGACACCC, the self-cleavage is 0.01. As to GGCAGAGCUCAACACAGAGCGGCAACGUGGGUUUAGCGAGACUGCC, the self-cleavage came to 0.01. With AGCCGAGCUUAACAUAGCGUGGCAAAGUGGCUGUGGUUAGACUGCC the figure was 0.06; with GGCAGGGCUCAACACAGCGUGGCAAAGUGUCUAUGGCUAGACUGCC, 0.03; with GGCAGGGCUCAACACAGCGUGGCAAAGUGGCUGUGGCUAGGCUGAC, 0.04.

Regarding GGCAGUACUCAACACAGCGUGGAAAAGUGGCUUUGGCUAGACUGCC, the self-cleavage worked out at 0.02. With GGCAGAGCUCAACACAGAGUGGCAAAGUGUCUGUGGCUAGACUGGC the figure was 0.53. Then GGAAGAGCUCUACACAGCCUAGCAAAGUGGCAGUAGCUAGACUGGC, with 0.03. Then GGCCGUGCUCAACACAGCGUGGCAAAGUGGCAGUGGCUAGACUGCC, with 0.01; and GGUAGGUCUGAGCACAGCGUGGCAAAGUGGCUGUGGCCAGACUGCC, with 0. On to GGCAGAGCUCAACACAACGUGGCAAUGUGGCUGAGGCUAGACUGUC, for which the self-cleavage was found to be 0.03. For GGCUGAGCUCCACACAUCGUAGUAAAGUGGCUGUGGCUAGACUUCC, the self-cleavage is 0.03.

On to GGCAGAGCUCAAAACAGUGUGGCAAAGUGGCUGUGGCUAGACUCCC, for which the self-cleavage was 0.07. With GUCAGAGCUCAACGCACCGUGGCAAAGUGGCUGCGGCUAGACUGCC the figure was 0.02; with UGCAGAGCUCAACACAGCGGGGCAAAGUGGCUGUGUCUAGACUGCC, 0.01. Regarding GGCAGAGCUCAACACAGCCGGGCGAUGUGGCUGUCGCUAGACUGCC, the self-cleavage stood at 0.11.

As for GGCAGAGCUCAAAACAGGGUGGCAAAGUGGGUGUGUCUAGACUGCC, the self-cleavage is 0.04.

On to GGCAGAGCUCAACCCACCGUGGCCAAGUGGCUGUGACUAGACUGCC, for which the self-cleavage was determined as 0.01. Take GGCAGAGCUCAACACAGCGUGGCAAAGAGGCUGUGGCUUGACUGAC: the self-cleavage turned out to be 0.15.

For UGCAGAGCUCAACACAGCGUGGCAACGUGGCUGUGGGUAGACUGCA, the self-cleavage is 0.04. Then GGCAGAGAUCAACACAGCGUGCCAAAGUGGCUGUGCCUAGACUGCC, with 0.15. Then GGCAGAGCUCAACGCAGCGUGGCAAAGUGACUGUGGGUAGACUGAC, with 0.02; and GGCAGAGCUCAACACAGCGGUGCAAAGUGGCUGUGGCUAGACUCCC, with 0.27; and GGCAGAGCCCAACACAGCUUCGCAAAGUGGCUGUGGCUAGACUGCC, with 0.02. With GGCAGACCUCAAAACCGCGUGGCACAGUGGCUGUGGCUCGACUGCC the figure was 0.03; with GACAGAGCUCAACACAGCGUGGCAAACUGGCUGUGGCUCGACUGCU, 0.27.

In the case of GGCAGAGCUCAACACGGCGUGGCAAAGUGGCUGUGGAUCGACUGCC, the self-cleavage is 0.19. Take GGCAGAGCUCAACACAGCGACGGAAAGUGGCUGUGGCUAGACUGCC: the self-cleavage was 0.14. Then GGCAGAAGUCAACACAGCGUGGCAAAGCGGCUGUGUUUAAACUUCC, with 0.02; and GGCAGAGCUCAACACUGCGCCGCAAAGUGGCUGUGGCUGGACUGCC, with 0.02; and GGCAGAGCUAAACGCAGCAUGGCAAAGUGGCGGUGGCUAGACUGCC, with 0.02. Consider GCCAGAACUCCGAACAGCGUGGCAAAGGGGCUGUGGCUAGACUGCC, for which the self-cleavage amounted to 0.04.

In the case of GGGACAGCUCAAGACAGCGUGGCAAAGUGGCUGUGACUAGACUGCC, the self-cleavage was found to be 0.13. Then GGCAGAGCUCAACACAGCGUGUGAAAGUGGCUGUGGCUAGAUUCCC, with 0.14. As for GGCAGAAUUCGACACAGCGUGGCAAAGUGGCUGUGGCUAGACUGAC, the self-cleavage came out at 0.04.

For the variant GGCGGAGCUCAACAUAGCGUGGCAAAGUGGCUGUGACUAGACUGCC, the self-cleavage came to 0.11.

Regarding GGCAGAGAUCUACACAGCGUGGCAAAGUGACUGUGGCUAGACUGCC, the self-cleavage came out at 0.01. Turning to GGCAGAACUCAACACCGCGUGGCAAAGCGCCUGUGGCUAGACAGCC, the self-cleavage was 0.97. Turning to GUCAGAGCUCCACACAGCGUGGCAAAGGGGCUCGGUCUAGACUGUC, the self-cleavage was found to be 0.01.

Regarding GGCCGAGCUCAACACAGCGUGGCAAAGUGGAUGUGGCUAGACUGUC, the self-cleavage amounted to 0.15. Consider GGCAGAGAUCAACACAGAGUGGCAAAGUAGCUGUGGCUAGACUGCC, for which the self-cleavage stood at 0.14. With GGCAGAGCUCAACGCUGCGUUGCAAAGUGGCUGUGGCUAAACUGCC the figure was 0.14; with GACAGAGCUCAACACAGCGUGUCAAAGAGGCUGUGGCUAGACUGCC, 0.26; with GGCAGAGCUGAACACAGCGUGGCAAAGUGACUGUGGCUAGACUGUC, 0.1.

GGCAGAGCUCAACACAGCGUGGGAAAGUAGCUGUGGCUAGACUGAC: the self-cleavage amounted to 1.93. Then GACAGAGCUCAGCACAGCGUGGCAAAGUGGCUGUAGAUAGACUGCC, with 0.17; and UACAGAGCUCAACACAGCGUGGAAAAGUGGCUGUGGCUAUACUGCC, with 0.01.

The values are drawn from the RNAGym collection of RNA variant scans (doi:10.7554/elife.90254).
